# About 14,000 (4.5%) of roughly 310,000 compounds showed an effect of 50% or more. The effect is printed as a negative number. This is one part of the list.
# Molecular target: human ether-à-go-go-related gene (hERG) potassium channel (human, UniProt Q12809)
# Assay: primary screen, population patch clamp on CHO cells stably expressing hERG
# 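Further: peak tail current of the secondary pulse compared with the same well before compound.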
# human ether-à-go-go-related gene (hERG) potassium channel, sequence (Q12809 whole entry, looked up): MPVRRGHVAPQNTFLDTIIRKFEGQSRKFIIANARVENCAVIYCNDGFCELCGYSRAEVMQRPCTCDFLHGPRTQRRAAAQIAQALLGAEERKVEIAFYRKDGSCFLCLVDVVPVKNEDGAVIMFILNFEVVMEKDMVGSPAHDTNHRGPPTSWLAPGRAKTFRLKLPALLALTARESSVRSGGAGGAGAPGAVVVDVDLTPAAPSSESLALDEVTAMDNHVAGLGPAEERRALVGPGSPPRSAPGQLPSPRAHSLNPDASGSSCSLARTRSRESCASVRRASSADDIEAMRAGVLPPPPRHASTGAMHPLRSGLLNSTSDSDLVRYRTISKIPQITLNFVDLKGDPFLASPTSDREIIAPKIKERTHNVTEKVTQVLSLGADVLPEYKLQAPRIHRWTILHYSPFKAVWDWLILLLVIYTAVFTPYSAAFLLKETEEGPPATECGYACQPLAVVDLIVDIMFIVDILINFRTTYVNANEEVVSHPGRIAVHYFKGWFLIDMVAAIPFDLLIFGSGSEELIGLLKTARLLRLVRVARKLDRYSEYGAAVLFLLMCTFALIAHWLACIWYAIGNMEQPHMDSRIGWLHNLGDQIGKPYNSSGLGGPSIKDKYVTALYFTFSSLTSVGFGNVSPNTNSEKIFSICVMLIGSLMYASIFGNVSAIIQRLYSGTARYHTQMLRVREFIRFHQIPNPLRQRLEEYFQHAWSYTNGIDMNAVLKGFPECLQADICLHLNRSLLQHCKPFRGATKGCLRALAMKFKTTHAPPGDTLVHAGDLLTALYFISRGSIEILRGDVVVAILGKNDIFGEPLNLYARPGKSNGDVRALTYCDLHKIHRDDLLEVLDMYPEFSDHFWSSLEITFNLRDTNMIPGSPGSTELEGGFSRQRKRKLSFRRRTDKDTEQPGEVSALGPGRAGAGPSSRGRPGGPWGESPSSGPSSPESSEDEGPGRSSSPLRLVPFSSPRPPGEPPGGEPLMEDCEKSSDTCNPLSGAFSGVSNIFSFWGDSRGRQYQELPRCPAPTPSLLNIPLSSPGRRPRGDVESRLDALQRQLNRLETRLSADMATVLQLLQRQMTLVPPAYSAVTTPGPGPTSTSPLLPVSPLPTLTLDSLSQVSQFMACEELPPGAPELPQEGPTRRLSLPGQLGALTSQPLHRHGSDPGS
row,Structure (SMILES),"hERG current change (%, negative = inhibition) at 10uM [%]"
1,O=C(NCc1ccccc1)C12CN(Cc3ccccc3)CC1C(c1cccc([N+](=O)[O-])c1)=NO2 (stereo not drawn),-14.6
2,COc1cccc(CNC2CCCc3ccccc32)c1OC (stereo not drawn),3.4
3,COc1ccc(C(=O)Nc2ccc3c(c2)OCCO3)cc1S(=O)(=O)N1CCOCC1,6.21
4,Brc1cnc(N2CCCC2)nc1N1CCOCC1,-15.9
5,CCOC(=O)c1ccc(N2Cc3ccccc3C2=NC(=O)c2cccc([N+](=O)[O-])c2)cc1,10.7
6,CCC(C)CCN1C(Nc2ccccc2)=NC[C@@H]1Cc1ccccc1 (stereo partly drawn),-59.6
7,CCCN(CC(=O)Nc1ccccc1C)C(=O)C1CCN(S(=O)(=O)c2cccc(C(F)(F)F)c2)CC1,-14.9
8,CCOC(=O)N/N=C/c1cn(CCCOc2ccccc2)c2ccccc12,21.4
9,O=C(CC1SC(=O)N(c2ccccc2)C1=O)Nc1ccc(Br)cc1 (stereo not drawn),16.1
10,CCOC(=O)C1CCCN(C(=O)C(=O)c2cn(CC(=O)N3CCOCC3)c3ccccc23)C1 (stereo not drawn),-2.74
11,COC(=O)c1ccc(Cn2nc(C)cc2C)cc1,17.6
12,CCOC(=O)c1c(NC(C)=O)sc2c(OC(C)=O)cccc12,8.8
13,Cc1ccc(OCC(=O)N(Cc2ccco2)C2CCS(=O)(=O)C2)cc1C (stereo not drawn),-38.8
14,CC1CCC(=O)N(CCSc2ccccc2)CC1 (stereo not drawn),-9.05
15,Cc1ccccc1NC(=O)Cn1cc(C(=O)C2CC2)c2ccccc21,10.2
16,COc1ccc(S(=O)(=O)N(C)CC(=O)Nc2ccccc2SC)cc1Cl,7.69
17,CCOC(=O)Cc1csc(NC(=O)c2ccc([N+](=O)[O-])cc2[N+](=O)[O-])n1,-0.405
18,COc1cccc(C2=CC(=O)CC(c3ccco3)C2)c1 (stereo not drawn),-16.1
19,COc1ccc2c(c1)O/C(=C\c1ccccc1C)C2=O,2.02
20,Cc1ccc(O)c(N=Nc2ccc(S(=O)(=O)N3CCCC3)cc2)c1,32.7
21,CCOC(=O)C1C(=O)NC(N2CCN(Cc3ccccc3)CC2)=NC1c1ccccc1 (stereo not drawn),-13.2
22,CCOc1ccccc1/C=N/n1nnnc1N,15
23,CCN(CC(=O)Nc1ccccc1C(F)(F)F)C(=O)c1cccc(N2C(=O)CCC2=O)c1,-3.81
24,Cc1cccc(NC(=O)CSCC(=O)N2CCN(c3cccc(C(F)(F)F)c3)CC2)c1,-21.8

# From publication PMC4336329 (PLoS ONE, 2015)
